Screen size: about 360,000 compounds; about 17,000 (4.7%) were called active. The shares of active, inactive and inconclusive entries below differ from those in the screen. Rule as the data show it: active = activity change below about -50%; inconclusive = mostly about -30% to -49%; inactive = weaker than that.
Assay: qHTS for Inhibitors of Inflammasome Signaling: IL-1-beta AlphaLISA Primary Screen
Conditions: THP-1 LPS/ATP IL-1B secretion, 16 h; at 57.5 µM, active compounds read low
How it was run: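 Secreted IL-1B measured by AlphaLISA bead assay after 16 h compound exposure of THP-1 cells; compounds (final up to 57.5 uM) added 1 h before LPS (250 ng/mL) and ATP (1.25 mM) stimulation; lower signal means less secretion.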
In the case of `O=C1C(=O)c2c(C(=O)c3ccccc3)coc2-c2ccccc21`, the activity change is reported as inconclusive: -44.5%. In the case of `CC(C)C[C@H]1CN=C(N(C)C)N1CCCCc1ccccc1`, the activity change is reported as inconclusive: -37.1%. In the case of `CCOP(=O)(c1ccccc1)c1nc(-c2ccccc2C)oc1N1CCCCC1` (centres undefined), the activity change is reported as inconclusive: -44.1%. In the case of `CCOc1ccc2nc(N/C(N)=N/C(=S)Nc3ccc(OC)cc3)nc(C)c2c1`, the activity change is reported as inconclusive: -35.5%. For `COc1ccc(CNC(=O)c2cc3cccc(O)c3oc2=N)cc1`, the activity change was inconclusive: -32.7%. With `Cc1cc(C)cc(NCc2cc3c(cc2[N+](=O)[O-])OCO3)c1` the activity change was inconclusive: -47.2%. With `COc1ccc(C(=O)Nc2ccc3ccccc3n2)c(OC)c1OC` the activity change was active: -76.1%. For `COc1ccc(CCNc2nc(-c3sc(C)nc3C)cs2)cc1OC`, the activity change was active: -55.5%. For `CCC(=O)Nc1ccc2c(c1)ncn2-c1ccc(OC)cc1`, the activity change was inconclusive: -42.1%. For `CCN1CC2=C(OC(N)=C(C#N)C2c2cccs2)/C(=C\c2cccs2)C1` (centres undefined), the activity change was inconclusive: -34%. With `CC(N=Cc1nc(-c2ccccc2)oc1O)c1ccccc1` (centres undefined) the activity change was inconclusive: -30.5%. For `CC(C)C1C(=O)N(Cc2cn(CCC3OCCO3)nn2)CCS(=O)(=O)N1Cc1ccc(-c2ccccc2Cl)cc1` (centres undefined), the activity change was inconclusive: -45.4%. For `Cc1cc(C)n(CCc2nc(-c3ccc(-c4ccccc4)cc3)cs2)n1`, the activity change was inconclusive: -37.2%. With `Nc1ccc(C(=O)N/N=C/c2cn(Cc3ccccc3F)c3ccccc23)cc1` the activity change was active: -66.7%. In the case of `Cc1cc(C)n(-c2nc3ccccc3c3nc(C)nn23)n1`, the activity change is reported as inconclusive: -32.6%. In the case of `Fc1ccccc1-c1[nH]ncc1-c1nnnn1-c1ccccc1`, the activity change is reported as inconclusive: -37.1%. In the case of `CC(=O)c1ccc(-c2cnc3c(NC=O)cc(-c4cccc(NS(C)(=O)=O)c4)cn23)cc1`, the activity change is reported as active: -68.2%. In the case of `COc1cnn(Cc2ccccc2)c(=O)c1SCc1ccccc1`, the activity change is reported as inconclusive: -48.7%. In the case of `O=C(CSc1ncnc2c1nnn2Cc1ccccc1)NC1CCCCC1`, the activity change is reported as active: -94.8%. For `COc1ccc2c(OC)c3ccoc3nc2c1OC`, the activity change was inconclusive: -32.1%. In the case of `CCN(CC)S(=O)(=O)c1ccc2c3c(cccc13)C(=O)S2`, the activity change is reported as inconclusive: -37.6%. For `COc1ccccc1NC(=O)NC1(C(=O)N2CCCCC2)CCCCC1`, the activity change was active: -75.7%. In the case of `CCCOc1ccc(-c2cc(C(=O)NCC3CCCO3)c3ccccc3n2)cc1` (centres undefined), the activity change is reported as inconclusive: -37.3%. With `CC(=NNC(=S)N1CCCCCC1)c1ccccn1` the activity change was active: -106%. With `Oc1ccc2ccccc2c1-c1sc(Nc2ccccc2)n[n+]1-c1ccc(F)cc1` the activity change was inactive: 7.52%. For `OCC[C@@H]1C[C@@H](O)[C@H](O)[C@@]2(CCc3ccccc3CO2)O1`, the activity change was inactive: 23.5%. With `O=C(CC(C(=O)O)c1cccc(Cl)c1Cl)c1ccccc1` (centres undefined) the activity change was inactive: 18.3%. In the case of `S=C(NNc1ccc2ccccc2c1)NC1CCCCC1`, the activity change is reported as active: -88.7%. In the case of `Cc1noc(C)c1CSCC(=O)Nc1cc(Cl)ccc1N1CCCCC1`, the activity change is reported as inconclusive: -50%. For `CC1=N/C(=C\c2ccc3c(c2)OCO3)C(=O)N1c1ccc(C(=O)O)cc1`, the activity change was inactive: 9.35%. With `O=C1N(c2ccc3c(c2)OCCO3)C(c2ccccc2)C1(F)F` (centres undefined) the activity change was inconclusive: -33.1%. With `C=CCN(C(C(=O)OC)C(C)C)S(=O)(=O)CCNCc1ccccc1` (centres undefined) the activity change was inactive: 92.4%. In the case of `COC(=O)c1ccc(CSc2nc3ccccc3c(=O)n2-c2ccc(OC)c(OC)c2)o1`, the activity change is reported as inconclusive: -33.9%. In the case of `CCOc1ccc(C(=O)CCN2CCCCCC2)cc1`, the activity change is reported as inconclusive: -35.5%. In the case of `CC(C)N1CC(COc2ccc(Cl)cc2Cl)OC1=O` (centres undefined), the activity change is reported as inconclusive: -30.7%. For `Cc1nc2cc(-c3ccsc3-n3c(C)ccc3C)[nH]n2c(=O)c1Cl`, the activity change was inconclusive: -44.1%. For `CCC(=O)Nc1nc2ccccc2n1Cc1ccccc1C`, the activity change was active: -56%. With `COc1ccc(NC(=O)c2ccc(-c3nn(C)c(=O)c4ccccc34)cc2)cc1C(N)=O` the activity change was inconclusive: -37.9%. With `O=C(CCCCCBr)N1CCC(CC2CC(c3cccc(Br)c3)=NO2)(C(=O)NCC2CCCCC2)CC1` (centres undefined) the activity change was inconclusive: -30.9%. With `COC(=O)c1cc(Cl)ccc1NCC(N)c1ccccc1` (centres undefined) the activity change was inconclusive: -43.3%. In the case of `O=C(Nc1cccc(Cl)c1)c1ccc(F)c(S(=O)(=O)NCc2cccs2)c1`, the activity change is reported as inconclusive: -32.6%. For `Cc1ccccc1C(=O)NC1CCN(C(=O)Nc2ccccc2Cl)CC1`, the activity change was inconclusive: -48.6%. In the case of `CCCCNc1cc(=O)n(C)c(=O)[nH]1`, the activity change is reported as inconclusive: -31.7%. With `O=C(Nc1ccccc1)c1ccc2nc(-c3ccco3)c(-c3ccco3)nc2c1` the activity change was inconclusive: -41%. In the case of `COc1cc(O)cc(O)c1C(=O)/C=C/c1ccccc1`, the activity change is reported as active: -106%. With `Cc1c(Cl)c([N+](=O)[O-])nn1CCCC(=O)Nc1cccc(Cl)c1` the activity change was inactive: -2.91%. With `Cc1cccc(C)c1OCC(O)CN` (centres undefined) the activity change was active: -59.1%. With `CC1CCc2c(C(=O)NCCN3CCOCC3)csc2C1` (centres undefined) the activity change was inconclusive: -30.6%. In the case of `O=C(CCc1ccc(S(=O)(=O)NCc2ccccc2)cc1)N1CCN(Cc2ccc3c(c2)OCO3)CC1`, the activity change is reported as inconclusive: -48.7%. In the case of `O=C1c2ccccc2C(=O)N1C/C=C/c1ccccc1`, the activity change is reported as inactive: -22.7%. In the case of `COc1cccc(/C=C/C(=O)OCC(=O)Nc2cccc(S(=O)(=O)N(C)C)c2)c1`, the activity change is reported as inactive: 28.6%. For `CCOc1cc(CN2CCCC(CNC(=O)c3ccc(F)cc3)C2)ccc1OC` (centres undefined), the activity change was inactive: -2.04%. With `COc1ccccc1Nc1nnc(SCC(=O)N2CCCC2=O)s1` the activity change was inactive: 11.7%. For `COc1cccc2sc3cc(NCc4ccc5c(c4)OCO5)ccc3c(=O)c12`, the activity change was inconclusive: -31.8%. With `COc1ccc(NC(=O)CNS(=O)(=O)c2ccc(Cl)cc2)cc1OC` the activity change was inactive: 24.9%. In the case of `CCCCn1c(N)c(N(CC(C)C)C(=O)CSCc2ccc(Cl)c(Cl)c2)c(=O)[nH]c1=O`, the activity change is reported as active: -56.3%. For `CCOC(=O)c1cnc(-n2nc(C)cc2C)nc1NCc1ccccc1`, the activity change was active: -111%. In the case of `COc1ccccc1CCC(=O)NNC(=O)Cn1nc(C)cc1C`, the activity change is reported as inactive: -5.51%. For `CCOCCCNC(=O)/C=C1\Sc2ccccc2N(Cc2ccccc2F)C1=O`, the activity change was inconclusive: -38.9%. With `N=c1n(Cc2ccccc2)c2ccccc2n1CC(O)c1ccccc1` (centres undefined) the activity change was inconclusive: -34.1%. With `Cc1ccc(C)c(-n2sc3ccc(F)cc3c2=O)c1` the activity change was active: -106%. For `Cc1ccc(Sc2c(C=O)c3ccccc3n2C)cc1`, the activity change was inconclusive: -32.7%. With `CC1(C)O[C@@H]2C[C@H]3[C@@H]4CCC5=CC(=O)C=C[C@]5(C)[C@@]4(F)[C@@H](O)C[C@]3(C)[C@]2(C(=O)CO)O1` the activity change was inconclusive: -32.4%. With `Cc1noc(C)c1COc1ccc(C(=O)NNC(=O)c2ccccc2F)cc1` the activity change was inactive: 18.5%. In the case of `O=C(Cn1nnc(-c2ccccc2Cl)n1)Nc1cccc(S(=O)(=O)N2CCCC2)c1`, the activity change is reported as inconclusive: -40.1%. With `CC(C)CCn1cnc2c(oc3nc4c(cc32)CCCC4)c1=O` the activity change was inconclusive: -48.3%. For `COc1cc(C(=O)NCc2cccc3ccccc23)ccc1OCc1ccccc1`, the activity change was inconclusive: -40.8%. For `Cc1c(C(=O)Nc2c(F)cccc2F)sc2ncnc(N3CCN(c4ccccc4)CC3)c12`, the activity change was active: -56.9%. For `O=[N+]([O-])c1ccc(OCC(O)CNCCNc2nccc(C(F)(F)F)n2)cc1` (centres undefined), the activity change was inconclusive: -46.2%. In the case of `COc1cccc(N(C(=O)CCl)C(C(=O)NCCc2ccccc2)c2cccs2)c1` (centres undefined), the activity change is reported as inconclusive: -36%. With `CCOC(=O)C1=C(c2ccccc2)N=c2s/c(=C\c3ccco3)c(=O)n2C1c1cccs1` (centres undefined) the activity change was inactive: -22.8%. With `CCN(Cc1ccccc1)C(c1ccccn1)c1nnnn1C(C)(C)CC` (centres undefined) the activity change was inconclusive: -49.3%. With `CCC(C)c1ccc(NC(=O)Nc2cccnc2)cc1` (centres undefined) the activity change was inconclusive: -37.9%. For `CC(C)C(=O)C1=Cc2cccc([N+](=O)[O-])c2OC1N1CCOCC1` (centres undefined), the activity change was active: -59.7%. With `O=C(NCC1CCN(Cc2ccccc2F)CC1)C1CCCN(c2ncnc3c2nc2n3CCCCC2)C1` (centres undefined) the activity change was inconclusive: -33.2%. In the case of `COc1ccc(OCC(=O)Nc2cccc(-c3nc4ccccc4[nH]3)c2)cc1`, the activity change is reported as inconclusive: -39.2%. In the case of `OC(c1ccc(Cl)c(F)c1)c1ncc(-c2ccccc2Cl)[nH]1` (centres undefined), the activity change is reported as inactive: 1.76%. In the case of `Cc1sc2nc(CN(C(=O)NCc3ccccc3)C3CCCC3)[nH]c(=O)c2c1C`, the activity change is reported as inconclusive: -44.6%. With `Cc1c(C)c2ccc(OCC(=O)NCCc3c[nH]c4ccccc34)c(C)c2oc1=O` the activity change was inconclusive: -31.5%. In the case of `CN(C)S(=O)(=O)c1ccc(N2CCCC2)c(C(=O)Nc2nc3ccccc3s2)c1`, the activity change is reported as inconclusive: -40.6%. In the case of `CCc1ccc(NC(=O)N(C2CCC(C)CC2)C2CCN(C(C)=O)CC2)cc1` (centres undefined), the activity change is reported as inconclusive: -32.5%. With `O=C(C(Sc1ccccc1)c1ccccc1)N1CCN(c2ccccc2)CC1` (centres undefined) the activity change was inconclusive: -40.3%. With `Clc1cccc(-c2cc3nc4c(c(NCc5ccco5)n3n2)CCCC4)c1` the activity change was active: -95.8%. In the case of `CC1CCc2sc(C(=O)N/N=C/c3ccc(O)cc3)cc2C1` (centres undefined), the activity change is reported as inconclusive: -48.5%. In the case of `Cc1ccc(-c2c(C(=O)N/N=C/c3sccc3C)nnn2-c2nonc2N)cc1`, the activity change is reported as inconclusive: -35.5%. In the case of `COc1ccccc1CNC(=O)c1cc(-c2ccc(F)cc2C)n[nH]1`, the activity change is reported as inconclusive: -49.7%. With `COc1ccc(C[C@@H]2CN3C(=NC[C@@H]3C)N2CCNC(=O)c2ccc(C)c(Br)c2)cc1` the activity change was inconclusive: -30.7%. For `CC(C)c1ccc(/C=N/NC(=O)c2c(Cl)cnn2C)cc1`, the activity change was inactive: -8.43%. For `COc1ccc(S(=O)(=O)CC2(O)CCN(C(=O)C(C)(C)C)CC2)cc1`, the activity change was inactive: 21.9%.

Source: PubChem BioAssay AID743279 (National Center for Advancing Translational Sciences (NCATS), 2014)
% is scaled to controls: 0 for no effect and ±100 for the full control effect.
